# Laboratory results: PubChem BioAssay AID1347073 (National Center for Advancing Translational Sciences (NCATS), 2019)
# The campaign covered roughly 45,000 compounds. About 200 (0.44%) were called active. Not shown: some 7% with an inconclusive outcome. The call rests on the fitted dose curve; in most records, active means well fitted activation curve with a large enough effect; inconclusive means small, poorly fitted or top-dose-only effect; inactive means no such curve, though single readings can be large or run the other way. This is one part of the list.
# Test: qHTS of TDP-43 Inhibitors: NCGC Sytravon Library Screen; further: nearly all actives have a fitted effect of over 55% in size; on growth rescue (activation): 0% is about no effect
# Settings: yeast TDP-43 toxicity rescue, BacTiter-Glo growth, 24 h; series mostly up to 46.1 µM; growth rescue (activation): at the top concentration
# Summary of the method: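 TDP-43-expressing yeast, pregrown in raffinose, seeded at OD600 0.02 in galactose medium with compound for 24 hr at 30 deg C. Growth read by BacTiter-Glo luminescence, so rescue of toxicity appears as activation.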
# Potency means the concentration at half of the fitted maximal effect.
SMILES,growth rescue (activation),Potency
COc1cccc(/C=C2/SC(=S)N(CC(=O)NNC(=O)c3ccccc3O)C2=O)c1,inactive: 15.3%,–
CCCCNC(=O)C1(C)CCN1Cc1cccc2c(OC)cc(C(=O)OCC)cc12 (stereo not drawn),inactive: 21.4%,–
CCOC(=O)c1c(C)[nH]c(C(=O)COC(=O)CCS(=O)(=O)c2ccc(C)cc2)c1C,inactive: 6.75%,–
Cc1ccc(C(=O)Oc2cccc(-n3cnnn3)c2)cc1,inactive: 23.3%,–
O=[N+]([O-])c1ccc2nc(-c3ccccc3)cc(-c3ccccc3)c2c1,inactive: 16.2%,–
O=C(NCc1ccccc1F)c1ccncc1,inactive: -6.71%,–
O=C(N/N=C/c1ccc2ncccc2c1)c1cccc([N+](=O)[O-])c1,inactive: 18.5%,–
Cc1ccc(C)c(NCC(=O)NNC(=S)Nc2ccccc2)c1,inactive: 19.8%,–
Cc1cccc(C(P(=O)(c2ccccc2)c2ccccc2)P(=O)(c2ccccc2)c2ccccc2)n1,inactive: -4.42%,–
Cc1ccc(-n2ncc3c(SCc4cccc(C)c4)ncnc32)cc1,inactive: 17.2%,–
C=C(C)CN=C1NN=C(c2cc(C)n(-c3ccc(C)cc3)c2C)CS1,inactive: 25%,–
O=C(/C=C/c1ccc(S(=O)(=O)N2CCOCC2)cc1)NC(CO)C(O)c1ccc([N+](=O)[O-])cc1 (stereo not drawn),inactive: 17.9%,–
O=C(O)CCCNC(=O)/C(=C\c1ccccc1F)NC(=O)c1ccccc1,inactive: -11.5%,–
COc1cc(S(=O)(=O)n2cnc(C)c2)ccc1Br,inactive: 16.6%,–
CC(C)N(C(=O)CSc1nnnn1-c1ccc2c(c1)OCO2)C(C)C,inactive: 1.12%,–
COC(=O)c1[nH]c2ccc(Cl)cc2c1NC(=O)CN1CCc2cc(OC)c(OC)cc2C1,inactive: 11.2%,–
CC(Sc1nncs1)C(=O)NCC(=O)Nc1ccc(F)c(F)c1F (stereo not drawn),inactive: 14.7%,–
CCc1nnc(NC(=O)C2CCCN2C(=O)Nc2ccc(Cl)cc2)s1 (stereo not drawn),inactive: 8.23%,–
COc1ccc(-n2c(COc3cccc(C)c3)nnc2SCC(=O)O)cc1,inactive: 22.8%,–
CN(C)Cc1csc(NC(=O)Nc2ccccc2C(C)(C)C)n1,inactive: 2.4%,–
CN(C)C(=O)c1cccc(-c2cnc3sc(NCc4ccc5c(c4)OCO5)nn23)c1,inactive: 6.22%,–
O=C(NCc1ccc(F)cc1)c1cc(C2CCCN(C(=O)c3ccc4ccccc4c3)C2)on1 (stereo not drawn),inactive: 10.8%,–
CCOc1ccc2nc(NCCNC(=S)NCCCN(C)C)c(C#N)cc2c1,inactive: 3.24%,–
CCOP(=O)(OCC)C(NC(=O)Nc1ccc(Cl)cc1)c1ccccc1 (stereo not drawn),inactive: 5.54%,–
COc1ccc(C(=O)NCC(=O)OCC(=O)NC2CCCC2)cc1,inactive: 12.8%,–
O=C(COC(=O)[C@H](Cc1ccccc1)NC(=O)c1cccs1)NC1CCCCC1,inactive: -4.32%,–

SMILES,growth rescue (activation),Potency
COc1ccc(CCC(=O)NNC(=O)c2ccc(OC)cc2)cc1,inactive: 11.1%,–
CC(=O)Nc1ccc(NS(=O)(=O)c2ccc(OC(C)C(=O)N3CCOCC3)cc2)cc1 (stereo not drawn),inactive: 11.3%,–
CCN(CC)CCN(Cc1cc2cc3c(cc2[nH]c1=O)OCCO3)C(=S)NCC1CCCO1 (stereo not drawn),inactive: 2.57%,–
O=C(O/N=C(\c1ccccc1)c1ccccn1)c1cccc2ccccc12,inactive: 22.1%,–
CC(=O)Nc1cccc(-c2ccnc3c2CC(C(=O)Nc2cccc(N(C)C)c2)O3)c1 (stereo not drawn),inactive: -2.52%,–
Cc1ccc(N(C(=O)CCC(=O)Nc2nccs2)C(C(=O)NC(C)(C)C)c2ccc(O)cc2)cc1 (stereo not drawn),inactive: 4.42%,–
O=C(Nc1cccc(S(=O)(=O)N2CCCCCC2)c1)c1ccc(Cl)nc1,inactive: -12.1%,–
NC(=O)c1ccc(NC(=O)c2ccccc2S(=O)(=O)c2ccccc2[N+](=O)[O-])cc1,inactive: 5.02%,–
O=C(O)c1c2c(nc3ccc(S(=O)(=O)N4CCC(C(=O)NCc5ccc(Cl)cc5)CC4)cc13)CCCC2,inactive: -4.18%,–
O=C(COC(=O)COc1ccccc1)Nc1ccc(Br)cc1F,inactive: -15.1%,–
CCCCCOc1ccc(NC(=O)Cn2c(-c3cncs3)nc3ccccc32)cc1,inactive: 18.1%,–
CC1CN(C(=O)N2c3ccccc3Sc3ccccc32)CC(C)O1 (stereo not drawn),–,active: 12.6 µM
Cc1cc(C)n(CCC(=O)N/N=C/c2ccc(Br)c([N+](=O)[O-])c2)n1,inactive: 21.4%,–
COC(=O)[C@H](Cc1ccccc1)NC(=O)Nc1ccc(OC)cc1,inactive: -3.46%,–
CCC(/C=C1\Oc2ccc(OC)cc2N1C)=C\c1sc2ccccc2[n+]1CCCS(=O)(=O)[O-],inactive: -7.22%,–
CC(C)CNC(=O)NC(=O)COC(=O)C1CSC2(c3ccc(F)cc3)CCC(=O)N12 (stereo not drawn),inactive: -9.24%,–
CN(c1cccc(NC(=O)CN(c2cccc(Cl)c2)S(=O)(=O)c2ccccc2)c1)S(C)(=O)=O,inactive: 20.7%,–
Cc1cccc(N2C(=O)CC(N3CCN(Cc4ccc5c(c4)OCO5)CC3)C2=O)c1 (stereo not drawn),inactive: -4.29%,–
Cc1sc(-c2c(C#N)c(N)nc3c2CCCCCC3)cc1[N+](=O)[O-],inactive: 23.1%,–
CCc1ccc(NC(=O)COC(=O)/C(=C/c2ccccc2OC)c2ccccc2)cc1,inactive: 23.2%,–
CCSc1nnc(NC(=O)C2C3CCC(C3)C2C(=O)O)s1 (stereo not drawn),inactive: 3.13%,–
O=c1c2ccccc2n2cnnc2n1-c1ccccc1,inactive: 3.22%,–
CC(=O)N(c1ccc2oc(=O)sc2c1)S(=O)(=O)c1ccc(C)cc1,inactive: 14.2%,–
S=C(NCc1ccccc1)N1CCN(c2ccccc2)CC1,inactive: 15.5%,–
COc1ccc(OC)c(C(=O)C2COC(=O)C2)c1 (stereo not drawn),inactive: 30.6%,–
CCC(CC)C(=O)Nc1cc(C(=O)OC)ccc1C(=O)OC,inactive: 5.02%,–

SMILES,growth rescue (activation),Potency
O=C(COC(=O)c1ccc(NS(=O)(=O)c2cccs2)cc1O)Nc1ccc(F)cc1,inactive: 30.3%,–
OC(c1ccccc1)c1ncc(-c2cccc(OCc3ccccc3)c2)[nH]1 (stereo not drawn),inactive: 16%,–
CN(C(=O)CN1CCN(c2cc(-c3ccc(OCc4ccccc4)cc3)ncn2)CC1)c1ccccc1,inactive: 6.8%,–
COc1cccc(-c2nc(N3CCN(C)CC3)c3ccccc3n2)c1O,inactive: -2.42%,–
COc1ccc(C(=O)CCC(=O)Nc2cccnc2)cc1OC,inactive: 14.8%,–
Cc1ccccc1C(C(=O)NC1CCCCC1)N(C(=O)CNC(=O)c1ccco1)c1cccnc1 (stereo not drawn),inactive: -10.1%,–
Cc1c(C(=O)O)sc2nc(/C=C/c3ccccc3OC(F)F)[nH]c(=O)c12,inactive: 4.22%,–
CCOc1ccc(CN(CC)C(=O)Cc2c[nH]c3ccccc23)cc1OC,inactive: -4.99%,–
COCCN(Cc1ccc(OC)cc1)c1c(C)nc2ccc(C(=O)NCCc3c[nH]c4ccccc34)cn12,inactive: 13.4%,–
Cc1nn(C)cc1CN(C)C(=O)c1nn2c(c1Br)NC(c1cccs1)CC2C(F)(F)F (stereo not drawn),inactive: 7.88%,–
O=C(Cc1ccc(Cl)cc1)NCC(=O)N1CCN(c2ccccc2)CC1,inactive: 12.1%,–
Cc1nn(CC(=O)Nc2ccc(N3CCOCC3)cc2)c(C)c1Cl,inactive: 13.8%,–
CCn1c(C)nc2cc(C(=O)N/N=C(\C)c3ccc(N4CCOCC4)cc3)ccc21,inactive: 15.8%,–
CC1=NNC(=O)C1CCC(=O)N/N=C/C=C/c1ccccc1 (stereo not drawn),inactive: 1.91%,–
Cc1ccc(S(=O)(=O)N(C)Cc2ccccc2)cc1C(=O)N1CCCCC1,inactive: -25.5%,–
Cc1ccc(S(=O)(=O)Nc2c(C)nc3nc(C)[nH]n3c2=O)c(C)c1,inactive: -0.82%,–
O=C(C1CC(=O)N(c2ccccc2)C1)N1CCN(c2ccc(F)cc2)CC1 (stereo not drawn),inactive: 4.62%,–
Oc1ccc(NCc2ccccc2OCc2ccccc2Cl)cc1,inactive: 9.06%,–
Cc1ccc(SCCC(=O)NCCSCc2ccco2)cc1,inactive: 28.9%,–
CCOc1ccc(S(=O)(=O)N(C)CC(=O)NC2CCCC2)cc1,inactive: 13.8%,–
COc1cccc(NC(=O)C2Cc3ccccc3CN2C(=O)c2ccco2)c1 (stereo not drawn),inactive: -3.63%,–
O=C(CN1CCN(Cc2ccccc2)CC1)Nc1cccc(Br)c1,inactive: 19.2%,–
CN(C)S(=O)(=O)c1ccc(NC(=O)Cc2ccc(S(=O)(=O)N3CCOCC3)s2)cc1,inactive: -8.96%,–
CCOc1ccc(/C=N/Nc2cc(C)nc(N3CCOCC3)n2)cc1,inactive: 13.6%,–
CC(=O)c1csc(-c2ccccc2)n1,inactive: 7.21%,–
Cc1ccc(CNC(=O)CCC2CCCN(C(=O)c3ccc4c(c3)OCO4)C2)o1 (stereo not drawn),inactive: 2.39%,–

SMILES,growth rescue (activation),Potency
CCCc1cc(CN(C)C(=O)CC2C(=O)NCCN2Cc2ccccc2C)[nH]n1 (stereo not drawn),inactive: 13.6%,–
Cc1cc2oc(C(=O)NCc3ccccc3)cc(=O)c2cc1C,inactive: -19.7%,–
COc1ccc(C(=O)Nc2nc(-c3ccc([N+](=O)[O-])cc3)c(-c3ccccc3)s2)cc1,inactive: -1.13%,–
Cc1ccsc1/C=C1\Oc2cc(OCC(=O)c3ccccc3)ccc2C1=O,inactive: -0.248%,–
CC(C)(C)c1ccc(C(=O)NCC(=O)OCc2ccc([N+](=O)[O-])cc2)cc1,inactive: 9.97%,–
O=C1CN(C(=O)CSc2ccc(-c3ccc(F)cc3)nn2)c2ccccc2N1,inactive: -13.6%,–
Cc1ccc(C(=O)OCC(=O)NC(C)c2ccccc2)s1 (stereo not drawn),inactive: 13.8%,–
COc1ccc2c(c1)Cc1sc(NC(=O)c3ccc(Cl)cc3)nc1-2,inactive: 34%,–
CC(NC(=O)c1cccc2ccccc12)c1ccc2c(c1)CCCC2 (stereo not drawn),inactive: 23.7%,–
CCC1(c2ccc(F)cc2)NC(=O)N(CC(=O)N2CCN(C(=O)c3ccco3)CC2)C1=O (stereo not drawn),inactive: 14.6%,–
O=C(NNC1CC(=O)N(c2ccc3c(c2)OCCO3)C1=O)c1ccc(Cl)cc1 (stereo not drawn),inactive: 8.56%,–
N#Cc1cccc(Nc2c3c(nc4ccccc24)CCC3)c1,inactive: 5.63%,–
Cc1cc(NC(=O)CSc2nnc(-c3ccccc3Cl)o2)no1,inactive: 7.18%,–
CCOc1ccccc1CNC(=O)CCCN1C(=O)COc2ccc(C)cc21,inactive: 26.4%,–
Cc1nnc(SCC(=O)NC2CCCC(C)C2C)n1N (stereo not drawn),inactive: 0.329%,–
CCOc1ccc(NC(=O)c2ccc(NCC(=O)N3CCCCCC3)cc2)cc1,inactive: 1.73%,–
COC(=O)c1cccc(CSc2nnc(-c3ccco3)n2-c2ccccc2)c1,inactive: 25.2%,–
COc1ccccc1CC(=O)NC1CC(C)(C)NC(C)(C)C1,inactive: 33%,–
CCOc1ccc(NC(=S)N2CCC(N(C)CCN3CCOCC3)CC2)cc1,inactive: 1.42%,–
COc1ccc(CCNC(=O)C2CCN(c3nccc(C)n3)CC2)cc1,inactive: -5.93%,–
O=C(Nc1cccnc1Cl)c1cc(-c2ccc(O)cc2)on1,inactive: 16.2%,–
Cc1ccc2c(c1)C(O)(CC(=O)/C=C/C=C/c1ccccc1)C(=O)N2 (stereo not drawn),inactive: 11.6%,–
Cc1cccc(OCCCSc2nc(-c3ccc(C(C)(C)C)cc3)nc3cc(=O)[nH]n23)c1C,inactive: 7.28%,–
CCn1cc(C(=O)NCCCN2CCCC2)c(=O)c2cc(S(=O)(=O)N3CCc4ccccc4C3)ccc21,inactive: -15%,–
Cc1ccc(-c2nc(-c3cccnc3)sc2CC(=O)Nc2ccc3nc(C)sc3c2)cc1,inactive: 4.39%,–
